Source: US20230063794A1, “STAPLED TRIAZOLE CO-AGONISTS OF THE GLUCAGON AND GLP-1 RECEPTORS” (Merck Sharp & Dohme LLC, priority 2019, published 2023)
Not every detail of the peptide structures is certain; ends, links or a residue may be inferred. Starred links: 1 amine or outer side, 2 acyl side, 3 side chain; linkers in the order of their positions; H or OH if unused. Positions of bridges follow the written chain, without caps; N, C: chain ends. Non-standard residues stand in square brackets, D forms with d. Residues, ends and D or L forms follow the SMILES beside them. Groups on a side chain read outwards from the residue. Triazole bridges read from a SMILES are 1,4-linked. *: point of attachment. Lys(N3) = [N-]=[N+]=NCCCC[C@H](N)C(=O)O; γGlu = O=C(O)[C@H](CCC(=O)[*:2])N[*:1]; Met(O2) = CS(=O)(=O)CC[C@H](N)C(=O)O; Palmitoyl = CCCCCCCCCCCCCCCC(=O)*; dPra = C#CC[C@@H](N)C(=O)O; Aib = CC(C)(N)C(=O)O

Target: T1, human GCGR (Homo sapiens, UniProt P47871)
T1 construct: expressed in transfected cells; grown under Blasticidin and Hygromycin selection
T1 sequence (P47871 26-477): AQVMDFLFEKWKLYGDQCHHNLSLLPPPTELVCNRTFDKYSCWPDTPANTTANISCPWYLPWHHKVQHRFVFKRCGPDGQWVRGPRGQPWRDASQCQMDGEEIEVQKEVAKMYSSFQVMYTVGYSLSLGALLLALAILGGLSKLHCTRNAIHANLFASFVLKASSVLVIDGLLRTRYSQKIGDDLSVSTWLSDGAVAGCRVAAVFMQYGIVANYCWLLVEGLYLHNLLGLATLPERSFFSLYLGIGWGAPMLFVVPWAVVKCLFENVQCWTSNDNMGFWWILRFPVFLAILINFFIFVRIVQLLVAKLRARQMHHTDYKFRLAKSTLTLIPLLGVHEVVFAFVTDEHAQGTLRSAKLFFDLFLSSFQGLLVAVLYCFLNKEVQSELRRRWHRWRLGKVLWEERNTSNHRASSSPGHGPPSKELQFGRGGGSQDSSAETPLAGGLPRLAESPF
Assay: cAMP activity assay in cells expressing human GCGR
Format: cell-based
Details: ratio of human GCGR EC50 to human GLP1R EC50
Experimental: Activity of the peptides at the Glucagon receptor (GCGR) and GLP-1 receptor (GLP1R) was measured in a cAMP activity assay.
Peptides were dissolved in 100% DMSO and serially diluted to generate 10 point titrations. The peptide solutions were then transferred into 384-well assay plates (150 nL/well). Assay ready frozen cells expressing human GLP1R or human GCGR were suspended in growth media consisting of DMEM medium (GIBCO), 10% FBS (GIBCO), 1× NEAA(GIBCO), 1× P/S (GIBCO), 10 ug/ml Blasticidin (GIBCO) and 200 μg/mL Hygromycin (GIBCO). Cells were then diluted in assay buffer consisting of PBS (GIBCO), 7.5% BSA (Perkin Elmer), 100 μM RO 20-1724 (Sigma), with or without 20% human serum (MP Biomedical). The cell suspensions (15 μL) were then added to the assay plates containing the peptide solutions (30,000 cells/well for human GCGR; 10,000 cells/well for human GLP1R). The cells were incubated for 1 hour at room temperature in the dark. Production of cAMP was determined using HitHunter™ cAMPXS kits (DiscoverX) following manufacturer protocol. The plates were incubated for overnight at room temperature in the dark. Luminescence was measured using an EnVision Multilabel plate reader (Perkin Elmer). Native GLP-1 and Glucagon (Bachem) are used as control peptides. EC50 values were calculated using uses a 4 parameter logistic fit based on the Levenberg-Marquardt algorithm.

| Compound | hGCGR/hGLP1R (hTone) |
| --- | --- |
| CCCCCCCCCCCCCCCC(=O)N[C@@H](CCC(=O)N[C@@H](CCC(=O)NCCCC[C@H](NC(=O)[C@H](CC(=O)O)NC(=O)[C@H](CO)NC(=O)[C@@H](NC(=O)[C@H](Cc1ccccc1)NC(=O)[C@@H](NC(=O)CNC(=O)[C@H](CCC(N)=O)NC(=O)C(C)(C)NC(=O)[C@@H](N)Cc1c[nH]cn1)[C@@H](C)O)[C@@H](C)O)C(=O)N[C@@H](CO)C(=O)N[C@@H](CCCCN)C(=O)N[C@@H](Cc1ccc(O)cc1)C(=O)N[C@@H](CC(C)C)C(=O)N[C@@H](CC(=O)O)C(=O)N[C@@H]1Cc2cn(nn2)CCCC[C@@H](C(=O)N[C@@H](CC(=O)O)C(=O)N[C@@H](Cc2ccccc2)C(=O)N[C@H](C(=O)N[C@@H](CCC(N)=O)C(=O)N[C@@H](Cc2c[nH]c3ccccc23)C(=O)N[C@@H](CC(C)C)C(=O)N[C@@H](CCS(C)(=O)=O)C(=O)N[C@@H](CC(=O)O)C(=O)N[C@H](C(=O)N[C@@H](CCCCN)C(=O)N[C@@H](CCC(N)=O)C(=O)O)[C@@H](C)O)C(C)C)NC(=O)[C@H](C)NC(=O)[C@H](C)NC(=O)[C@H](CCCNC(=N)N)NC1=O)C(=O)O)C(=O)O [compound 20] (H-H[Aib]QGTFTSDK([γGlu-γGlu-Palmitoyl])SKYLD[dPra]RAA[Lys(N3)]DFVQWL[Met(O2)]DTKQ-OH; triazole 16-20; N-terminus assumed) | 5.04 |
| CCCCCCCCCCCCCCCC(=O)N[C@@H](CCC(=O)N[C@@H](CCC(=O)NCCCC[C@H](NC(=O)[C@H](CC(=O)O)NC(=O)[C@H](CO)NC(=O)[C@@H](NC(=O)[C@H](Cc1ccccc1)NC(=O)[C@@H](NC(=O)CNC(=O)[C@H](CCC(N)=O)NC(=O)[C@@H](CO)NC(=O)[C@@H](N)Cc1c[nH]cn1)[C@@H](C)O)[C@@H](C)O)C(=O)N[C@@H](CO)C(=O)N[C@@H](CCCCN)C(=O)N[C@@H](Cc1ccc(O)cc1)C(=O)N[C@@H](CC(C)C)C(=O)N[C@@H](CC(=O)O)C(=O)N[C@@H](CCC(=O)O)C(=O)N[C@@H](CCCNC(=N)N)C(=O)N[C@@H](C)C(=O)N[C@@H](C)C(=O)N[C@H]1CCCCn2cc(nn2)C[C@H](C(=O)N[C@@H](Cc2c[nH]c3ccccc23)C(=O)N[C@@H](CC(C)C)C(=O)N[C@@H](CC(C)C)C(=O)N[C@@H](CC(=O)O)C(=O)N[C@H](C(N)=O)[C@@H](C)O)NC(=O)[C@H](C(C)C)NC(=O)[C@H](Cc2ccccc2)NC(=O)[C@H](CC(=O)O)NC1=O)C(=O)O)C(=O)O [compound 6] | 0.4 |
| CCCCCCCCCCCCCCCC(=O)N[C@@H](CCC(=O)N[C@@H](CCC(=O)NCCCC[C@H](NC(=O)[C@H](CC(=O)O)NC(=O)[C@H](CO)NC(=O)[C@@H](NC(=O)[C@H](Cc1ccccc1)NC(=O)[C@@H](NC(=O)CNC(=O)[C@H](CCC(N)=O)NC(=O)[C@@H](CO)NC(=O)[C@@H](N)Cc1c[nH]cn1)[C@@H](C)O)[C@@H](C)O)C(=O)N[C@@H](CO)C(=O)N[C@@H](CCCCN)C(=O)N[C@@H](Cc1ccc(O)cc1)C(=O)N[C@@H](CC(C)C)C(=O)N[C@@H](CC(=O)O)C(=O)N[C@@H](C)C(=O)N[C@@H]1Cc2cn(nn2)CCOCCOCCOC[C@@H](C(=O)N[C@@H](Cc2c[nH]c3ccccc23)C(=O)N[C@@H](CC(C)C)C(=O)N[C@@H](CC(C)C)C(=O)N[C@@H](CC(=O)O)C(=O)N[C@H](C(N)=O)[C@@H](C)O)NC(=O)[C@H](C(C)C)NC(=O)[C@H](Cc2ccccc2)NC(=O)[C@H](CC(=O)O)NC(=O)[C@H](CCC(N)=O)NC(=O)[C@H](C)NC(=O)[C@H](C)NC1=O)C(=O)O)C(=O)O [compound 28] | 0.28 |
